± gives the standard deviation of the averaged measurements. Some of the results follow.

In the test the test system is PfAP2-LT AP2 domain (GST-tagged). The experiment in a line: gcPBM binding intensity (ln(normalized median fluorescence intensity)); higher = stronger DNA binding. An outline of the steps:
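Each value is the highest Masliner-normalised natural-log median intensity across replicate spots of either orientation of a probe. The probes were primer-extended double-stranded 36-bp intergenic genomic sequences on an Agilent 4 × 180k array, alongside negative controls, exposed for 1 h to GST-tagged P. falciparum DNA-binding domains expressed in E. coli. Bound protein was picked up with Alexa488 anti-GST antibody and scanned at 488 nm.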
For “ATATATAAATATAGCATACACACAAAAAAATAAAAT [CACACA_site2332]”, the “gcPBM binding intensity (ln)” value came out at 9.26 ± 0.52.

Regarding “AAATATATATATATTACACACTATATATTTATTTAT [CACACA_site681]”, the “gcPBM binding intensity (ln)” value is 8.79 ± 0.38.

In the case of “TTCATTAAAACGAATACACACATAAATATATAAAAG [CACACA_site4824]”, the “gcPBM binding intensity (ln)” value came to 8.89 ± 0.37.

As for “AATTTTATTTAAAGTGCATGTAAAATTAAAACTTTT [TGCATGCA_site989]”, the “gcPBM binding intensity (ln)” value was determined as 8.28 ± 0.43.

For “AAAGACAAAAGGAATTGTACATAATATATAAAATAT [XGTACX_site2923]”, the “gcPBM binding intensity (ln)” value amounted to 9.03 ± 0.44.

With “CACAAAAGTAAGCACGCACACACAACATGAAATAAA [CACACA_site7938]”, the “gcPBM binding intensity (ln)” value is 9.68 ± 0.47.

For “CATTTTTTGTAAAATCGTACATATACATAAAGTGGT [XGTACX_site3423]”, the “gcPBM binding intensity (ln)” value stood at 8.62 ± 0.35.

On to “ATATAAAATATGAGTAGTACATATTTTCTCATCTTA [XGTACX_site8595]”, for which the “gcPBM binding intensity (ln)” value was 8.59 ± 0.45.

For “GGGAAACGATTTAATACACACACGTATTATATATAT [CACACA_site1160]”, the “gcPBM binding intensity (ln)” value came to 9.32 ± 0.28.

As for “TATGAATTTATCTACAACATTTGAAATAAATTAAAA [CACACA_negctrl_site79]”, the “gcPBM binding intensity (ln)” value is 8.19 ± 0.33.

As for “ATAATGTATATTATTGCACACATATATAAAATTATG [CACACA_site8280]”, the “gcPBM binding intensity (ln)” value stood at 8.91 ± 0.35.

Take “AATATAAATATAAATATAAATATATATATATATATA [TGCATGCA_negctrl_site603]”: the “gcPBM binding intensity (ln)” value turned out to be 9.02 ± 0.13.

On to “TTTTATAAAAACAAAAACAAAGGCACTTTCTAAAGA [XGTACX_negctrl_site130]”, for which the “gcPBM binding intensity (ln)” value worked out at 8.32 ± 0.45.

For “TAAATAAATACATACACACACATACCTATATTTATA [CACACA_site7466]”, the “gcPBM binding intensity (ln)” value turned out to be 9.52 ± 0.19.

In the case of “TGTATACACATATGTACACACATATAGATGTATATG [CACACA_site7447]”, the “gcPBM binding intensity (ln)” value came to 9.07 ± 0.33.

As for “ATATAATAATATTATACATGCAAAATATGTTCTTCA [TGCATGCA_site115]”, the “gcPBM binding intensity (ln)” value was 8.69 ± 0.41.

With “AGACTATCATTTTTTTAACACACAAAAAAAATAAAA [CACACA_site9173]”, the “gcPBM binding intensity (ln)” value was determined as 8.63 ± 0.43.

Take “ATCGCATATACATTATATTTTATAATAATTATTTTT [GTGCAC_negctrl_site48]”: the “gcPBM binding intensity (ln)” value is 8.84 ± 0.49.

Consider “TATTTTTTTATTTATTGTACTTTAAAAAAAATTAAA [XGTACX_site6167]”, for which the “gcPBM binding intensity (ln)” value is 8.16 ± 0.5.

As for AATACACACCTGTGGGTGCTTATAATAAGCCACAAA, the “gcPBM binding intensity (ln)” value was 8.95 ± 0.45.

On to “TAACAAATATTATTTTGTACATAATATATATATATA [XGTACX_site6898]”, for which the “gcPBM binding intensity (ln)” value is 8.6 ± 0.32.

“TTATAAAAATATTACGCACACACAAACTTATTCATT [CACACA_site1970]”: the “gcPBM binding intensity (ln)” value was 9.37 ± 0.24.

On to “ATATATTTATATTATACACACAAAAATATTTTGTAT [CACACA_site6262]”, for which the “gcPBM binding intensity (ln)” value was determined as 8.93 ± 0.42.

With “TATATATATTAATTTATTTATTTGTTTATTTATTTA [CACACA_negctrl_site185]”, the “gcPBM binding intensity (ln)” value amounted to 8.52 ± 0.49.

For the sequence “AAGAATTATAGAAACACACATACATACAGACATACA [CACACA_site1943]”, the “gcPBM binding intensity (ln)” value was determined as 9.3 ± 0.41.

Regarding “TAATTACCATATGGTACACACATATATATCTGTATA [CACACA_site5849]”, the “gcPBM binding intensity (ln)” value amounted to 9.31 ± 0.33.

Take “AAGAAGAGTTATTGTAGTACATTTTTAAATGTAATA [XGTACX_site7664]”: the “gcPBM binding intensity (ln)” value amounted to 8.63 ± 0.54.

In the case of “AATAATATCTGAAAATGTACATTTTATTATAAACAT [XGTACX_site8441]”, the “gcPBM binding intensity (ln)” value amounted to 8.86 ± 0.45.

Take “AGTTAAATGAATCAATACATAAATATGTATATATAT [TGCATGCA_negctrl_site539]”: the “gcPBM binding intensity (ln)” value came out at 8.7 ± 0.44.

As to “TGAATCAATTGTTGCTGTACATAAGGTATACAATAA [XGTACX_site5127]”, the “gcPBM binding intensity (ln)” value was 8.72 ± 0.45.

As to “TTTTTTTAATAAATTTATAACAATATGATAGGTGAC [CACACA_negctrl_site1783]”, the “gcPBM binding intensity (ln)” value came out at 8.34 ± 0.45.

On to “TATTTGGGTATTTTTACACACATTAATATATATATA [CACACA_site9114]”, for which the “gcPBM binding intensity (ln)” value came to 8.89 ± 0.4.

Consider “ATAATGGAAAAAAAATATAATAATACGAAATAGGAA [TGCATGCA_negctrl_site64]”, for which the “gcPBM binding intensity (ln)” value was determined as 8.91 ± 0.55.

For “AAAGATAATAATATGCGTACATAAAAATATATGATA [XGTACX_site6884]”, the “gcPBM binding intensity (ln)” value was found to be 8.86 ± 0.53.

As for “TATTTGTGAAGAAATTGTACTCATATCTACATTTAT [XGTACX_site2245]”, the “gcPBM binding intensity (ln)” value was 8.75 ± 0.45.

For the sequence “TCTTTGTATATATGTTCATTTGTAATATATATTCAT [TGCATGCA_negctrl_site467]”, the “gcPBM binding intensity (ln)” value came to 8.96 ± 0.39.

“ATAATAATATAAAAATGTACATATATTTATAATTGT [XGTACX_site3429]”: the “gcPBM binding intensity (ln)” value is 8.78 ± 0.45.

In the case of “CCCAGGAATATAAAATGTACATAAAAAATACAAATT [XGTACX_site1708]”, the “gcPBM binding intensity (ln)” value came to 9.07 ± 0.42.

For the sequence “ATTTTATTTTTTCACACACACATATATATATATATA [CACACA_site3334]”, the “gcPBM binding intensity (ln)” value was 9.54 ± 0.23.

As to “AGTACATTATAGAATACACACCTATACATTTATATA [CACACA_site6391]”, the “gcPBM binding intensity (ln)” value was 8.94 ± 0.36.

On to “TAAGCACAAGCACAAGCACACATTTATATATATATA [CACACA_site883]”, for which the “gcPBM binding intensity (ln)” value is 9.465 ± 0.021.

In the case of “TTTTTTTTTTTTGGATGTACTTAATGAAAATGTTAC [XGTACX_site8980]”, the “gcPBM binding intensity (ln)” value turned out to be 8.46 ± 0.45.

Regarding “CCTCATATTATAGACACACACAAAAAAAATAAAAAA [CACACA_site180]”, the “gcPBM binding intensity (ln)” value came to 9.16 ± 0.56.

Turning to “AATATAATATATATTAGTACATATATATATATATAT [XGTACX_site870]”, the “gcPBM binding intensity (ln)” value was 9.14 ± 0.4.

With “TCATTATTATATAATTGTACATAATAATTATATCCA [XGTACX_site1801]”, the “gcPBM binding intensity (ln)” value was determined as 8.53 ± 0.47.

For the sequence “ATGTATGTGTATATATGTACATAATATATATCTTTT [XGTACX_site8666]”, the “gcPBM binding intensity (ln)” value was determined as 8.98 ± 0.38.

Turning to “ATGCAAACTAAAAGACGTACAGAAAAGTATCATACT [XGTACX_site8766]”, the “gcPBM binding intensity (ln)” value was 9.02 ± 0.42.

“TGATTATTTTATATTTGTACACATATCATATAAAAA [XGTACX_site5868]”: the “gcPBM binding intensity (ln)” value was determined as 8.53 ± 0.47.

As for “ACATAATATTGAAGAAGTACAAATTTTATTTATTAT [XGTACX_site4113]”, the “gcPBM binding intensity (ln)” value is 8.6 ± 0.47.

For the sequence “ACGTTTTTGAGTAGTACACACACAATAAGGATGGAT [CACACA_site9044]”, the “gcPBM binding intensity (ln)” value stood at 9.27 ± 0.35.

Regarding “ATTATTATGTATTGCCGTACACATATTATCACAGAA [XGTACX_site3740]”, the “gcPBM binding intensity (ln)” value is 8.79 ± 0.46.

Regarding “TATTATAATTAATATACACACGCTTATATATATATA [CACACA_site75]”, the “gcPBM binding intensity (ln)” value was 8.99 ± 0.16.

On to “TCTTCATATATAATTGTACACACAAAAACGACATTG [CACACA_site8645]”, for which the “gcPBM binding intensity (ln)” value came to 8.98 ± 0.38.

Turning to “TATAAATAAACATTTACACACTCTTATAATAAATAT [CACACA_site1679]”, the “gcPBM binding intensity (ln)” value stood at 8.62 ± 0.39.

Turning to “ACATGTACAGAAATTTATATATATATATATATATAT [CACACA_negctrl_site1584]”, the “gcPBM binding intensity (ln)” value stood at 9.9 ± 0.32.

As for “GGAACCATCCAAAAAAAAAAAAAAAATAATAATAAT [CACACA_negctrl_site383]”, the “gcPBM binding intensity (ln)” value is 8.5 ± 0.58.

Values taken from the supplement of paper PMC11417369.
